This is one part of the list.
B1: 71073978_71084756_593_CDS_ENSMUSG00000027012_ENSMUST00000112142|mouse|control|control (ssRNA)
RNA: GGGAGUUCUACAGUCCGACGAUCCUCCUCCUCAUCUUCUUUGGGUUGAGCUGUAACCGGGGUCUGAGUUUCCUUUGUGUAUGUGACGAUUUCUCGAGGGGGAAAGUCAACUUGAGUAAUUUUGGCCAUUCCAAGUUUAAUAGGCAACAGAGGAUUGAGCAUCA
B2: 64993253_64993373_409_3pUTR_ENSMUSG00000029920_ENSMUST00000031984|mouse|control|control (ssRNA)
RNA: GGGAGUUCUACAGUCCGACGAUCCUUCAGCACUAAGAGAAAUUGGUGACGAAGGACGGGCCUGGGAGGGCUGAGGGGCUGCUUCGGGUGCUUCCUCAAUCUUACUCCUUUUCUCAAAGCGAAAACGGUCCAAGUUGAAAAGAUCAACAGAGGAUUGAGCAUCA
B3: chr11:29608675:29608676:+_ENSMUSG00000020458_ENSMUST00000102843|mus_hu|motif|central (ssRNA)
RNA: GGGAGUUCUACAGUCCGACGAUCUUCUGUAUCGGAAGGAAGUUUUUUCUCAGCUUCUUUCACAAGAACUUUGGGUUUAACGGUGCUCUCUAUCUCUGCUUGAGUGGCCAAAGCAGAAACAUCUGGAGGCAAUAAGAGCACCUUCAACAGAGGAUUGAGCAUCA
B4: chr5:67447025:67447026:+_ENSMUSG00000037736_ENSMUST00000038188|mus_hu|motif|central (ssRNA)
RNA: GGGAGUUCUACAGUCCGACGAUCCUGCACCUAUAUGGAACCCACAUGCAAAGAACCCAUCUAGCAUGUAAUAAAUAAUCGCGGGCCAUACUCAAUAAGACACGGAAAAAUUAUUGCUUACAUAACAGAAAAACAUCUACUUGACAACAGAGGAUUGAGCAUCA
B5: 10517792_10517912_4758_3pUTR_ENSG00000160049_ENST00000377038|human|control|control (ssRNA)
RNA: GGGAGUUCUACAGUCCGACGAUCCUUAGACUAACUGAGAGGUUAGACUCAAGCCGGUUUGUCUCACUCCCAAAUCCACAGGACAUUUUCCAUUAUCCACCCAGUUCAGCCGCUUGGUGGGCUUGCUUCAAGUACAGAAUAUUACAACAGAGGAUUGAGCAUCA
B6: chr11:77340908:77340909:-_ENSG00000074201_ENST00000525064|hu_hu|hu_hu_hu_mus_True|18_48 (ssRNA)
RNA: GGGAGUUCUACAGUCCGACGAUCGUUUGGAUCCCUGGACACCGCAUGUAAACUAAUGGUGGGGUAUUCCAGUGAGAAUCCUAAUCCAGAGCCAUCUAACCAGGACAGGCGGCUCUCAGCGAUGUAAAGCGUGCCGGUGCCGAGCAACAGAGGAUUGAGCAUCA

target: T1, UNK ZnF1-3 (human, UniProt Q9C0B0 31-174); assay: nsRBNS (natural sequence RNA bind-n-seq); RBNS binding buffer (assumed for nsRBNS): 25 mM Tris pH 7.5, 150 mM KCl, 3 mM MgCl2, 0.01% Triton X-100, 500 ug/ml BSA, 20 U/ml SUPERase-In, 4 C; UNK is unkempt and MSI1 is Musashi-1; names of the RNAs are library labels; protein concentration not given here; high values mean tight binding
T1 sequence: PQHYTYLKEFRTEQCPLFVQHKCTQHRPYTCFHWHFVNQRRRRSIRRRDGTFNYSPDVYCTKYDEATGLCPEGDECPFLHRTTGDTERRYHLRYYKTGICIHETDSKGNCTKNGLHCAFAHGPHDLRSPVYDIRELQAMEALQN

Binder	binding signal [enrichment R]
B1	1.01
B2	1.21
B3	0.249
B4	1.52
B5	0.866
B6	0.941

Source: article PMC12136788
